{"source": "PubChem BioAssay AID463173", "about": "(ICCB-Longwood Screening Facility, Harvard Medical School, 2010)", "note": "Hit rate of the full screen: of about 52,000 compounds, about 4,300 (8.3%) were called active. Cut-off read from the data, not from the text of the source: active = survival mostly below about 52% (no sharp cut-off); inactive = mostly above about 56%. This is one part of the list.", "data": [{"system": "DeltatarO mutant", "assay": "growth inhibition of S. aureus wild type versus tarO mutant, primary screen, teichoic acid synthesis inhibitors, RN4220, OD600 (AID 463173)", "settings": "OD600, 18 h, stronger effect = lower value, screened at 18.75 µg/mL (by protocol)", "values": [{"smiles": "CCc1ccc(C2=C(C)C(N3CCC(C(=O)Nc4cccc(OC)c4)CC3)=NS2(=O)=O)cc1", "survival": "inactive: 115%"}, {"smiles": "CCOc1ccc(NC(=O)CSc2nc(-c3cccs3)cc(C(F)(F)F)c2C#N)cc1", "survival": "inactive: 78%"}, {"smiles": "Oc1ccc(/C=C/c2nc(-c3ccccc3O)n(-c3ccccc3)n2)c(O)c1", "survival": "active: -3%"}, {"smiles": "Cc1cccc(NC(=O)CSc2nc(=O)n(Cc3ccncc3)c3c2CCC3)c1C", "survival": "inactive: 85%"}, {"smiles": "N#CCCn1c(=O)n(CCC#N)c(=O)n(CCC#N)c1=O", "survival": "inactive: 79%"}, {"smiles": "N#CCN(CC#N)C(=O)Cc1cccs1", "survival": "inactive: 102%"}, {"smiles": "O=C(NCc1ccccc1Cl)c1ccc2c(c1)nnn2C1CCCC1", "survival": "inactive: 77%"}, {"smiles": "CCOc1ccc(NC(=O)CN2CCN(CC(=O)Nc3ccc(N(CC)CC)cc3)CC2)cc1", "survival": "inactive: 85%"}, {"smiles": "COc1cc(NS(=O)(=O)c2ccc3[nH]c(=O)[nH]c3c2)cc(OC)c1", "survival": "inactive: 79%"}, {"smiles": "COc1cccc2c1Oc1ncccc1N(c1ccc(C(=O)NCc3ccccc3C)s1)C2", "survival": "inactive: 84%"}, {"smiles": "NC(=S)/N=C1/CCN(c2ccccc2)N1", "survival": "inactive: 89%"}, {"smiles": "COc1ccc(CCNC(=O)c2ccc3c(c2)sc2nc(-c4ccc(C)cc4)cn23)cc1OC", "survival": "inactive: 81%"}, {"smiles": "COc1ccccc1NC(=O)CSC1=Nc2ccccc2C2=NC(CC(=O)NCCc3ccccc3)C(=O)N12", "note": "(stereo not drawn)", "survival": "inactive: 85%"}, {"smiles": "COc1ccc(-c2noc(=O)n2CCCC#N)cc1OC", "survival": "inactive: 105%"}, {"smiles": "CCc1ccccc1NC(=O)Cn1nnc(-c2nc(-c3ccncc3)no2)c1N", "survival": "inactive: 86%"}, {"smiles": "CCn1c(SCc2cccc(C(=O)O)c2)nnc1-c1ccco1", "survival": "inactive: 93%"}, {"smiles": "Cc1ccc(NC(=O)C2CCN(S(=O)(=O)c3ccc4c(c3)CCCC(=O)N4)CC2)c(Cl)c1", "survival": "inactive: 83%"}, {"smiles": "CC1=Nc2cc(C(=O)NC3CCCCC3)ccc2Sc2ccc(Cl)cc21", "survival": "inactive: 85%"}, {"smiles": "COc1ccc(NC(=O)c2coc(=O)c3ccccc23)cc1OC", "survival": "inactive: 125%"}, {"smiles": "OCCNCC(O)Cn1ccc2ccccc21", "note": "(stereo not drawn)", "survival": "inactive: 73%"}, {"smiles": "O=C(CCCc1ccccc1)NC1CC(=O)N(c2ccc(Cl)cc2)C1", "note": "(stereo not drawn)", "survival": "inactive: 71%"}, {"smiles": "CC1=C(c2ccc(C(C)C)cc2)S(=O)(=O)N=C1N1CCN(c2ccc(F)cc2)CC1", "survival": "inactive: 74%"}, {"smiles": "Cc1ccc(OCC(=O)Nc2nnc(SCc3cc(=O)c4ccccc4[nH]3)s2)cc1C", "survival": "inactive: 94%"}, {"smiles": "COc1ccc(CNC(=O)C2CCCN2C(=O)NCc2ccccc2)cc1", "note": "(stereo not drawn)", "survival": "inactive: 88%"}, {"smiles": "COCCn1c(C)cc(O)c(C(c2ccccc2)N2CCN(CCO)CC2)c1=O", "note": "(stereo not drawn)", "survival": "active: 32%"}, {"smiles": "COc1cc2c(cc1OC)C(COc1ccc3c(C)cc(=O)oc3c1)N(C(=O)c1cccc(OC)c1OC)CC2", "note": "(stereo not drawn)", "survival": "inactive: 68%"}, {"smiles": "CC(=O)N1c2ccc(S(=O)(=O)N3CCCCCC3)cc2CC1C(=O)NCc1ccccc1", "note": "(stereo not drawn)", "survival": "inactive: 88%"}, {"smiles": "COc1ccc(C2C3C(=O)N(c4ccccc4)C(=O)C3ON2c2ccccc2)cc1", "note": "(stereo not drawn)", "survival": "inactive: 106%"}, {"smiles": "O=C(Nc1ccc2oc(-c3ccccc3)nc2c1)c1ccc2ccccc2c1", "survival": "inactive: 74%"}, {"smiles": "COc1ccc(-c2nc3scc(CCNS(=O)(=O)c4cc(F)ccc4OC)n3n2)cc1OC", "survival": "inactive: 66%"}, {"smiles": "NS(=O)(=O)c1cccc(C(=O)O)c1", "survival": "inactive: 82%"}, {"smiles": "CN(C(=O)CSc1nnc(-c2ccc([N+](=O)[O-])cc2)o1)C1CCCCC1", "survival": "inactive: 83%"}, {"smiles": "Cc1ccc(CN2CCSc3ccc(C(=O)Nc4cc(C)cc(C)c4)cc32)cc1", "survival": "inactive: 87%"}, {"smiles": "CC(=O)N1CCc2c(sc3nc(SCC(N)=O)n(-c4ccc(F)c(Cl)c4)c(=O)c23)C1", "survival": "inactive: 75%"}, {"smiles": "COc1ccc2c(c1)c1c(c(=O)n(Cc3ccccc3)c(=O)n1CC(=O)Nc1cc(C)cc(C)c1)n2C", "survival": "inactive: 72%"}, {"smiles": "CCOc1ccc(NC(=O)N2CCC(CN3CCCCCC3)CC2)cc1", "survival": "inactive: 115%"}, {"smiles": "Cc1cccc(N2CCN(C(=O)c3ccc4c(c3)c(C)c(C)n4C)CC2)c1C", "survival": "inactive: 80%"}, {"smiles": "Cc1cc(C)cc(NC(=O)CSc2oc(-c3ccco3)nc2S(=O)(=O)c2ccccc2)c1", "survival": "inactive: 65%"}, {"smiles": "O=C(Nc1ccccc1OCc1cc(=O)n2ccccc2n1)c1cccc(Br)c1", "survival": "inactive: 74%"}, {"smiles": "Cc1ccc2c(n1)sc1c(=O)n(-c3cccc(C(F)(F)F)c3)nnc12", "survival": "inactive: 102%"}, {"smiles": "Clc1ccc(OCc2nc(-c3ccc(-n4cccc4)cc3)no2)cc1", "survival": "inactive: 163%"}, {"smiles": "CCOC(=O)c1sc2nc(C)n(CC(=O)Nc3cccc(Cl)c3)c(=O)c2c1C", "survival": "inactive: 71%"}, {"smiles": "Cc1ccc(C)c(CSC2=NC(C)(C)Nc3ccccc32)c1", "survival": "inactive: 80%"}, {"smiles": "COc1ccc(CN(C)S(=O)(=O)c2nnc(NC(=O)C(C)C)s2)cc1OC", "survival": "inactive: 55%"}, {"smiles": "CC(=O)c1cccc(NC(=O)CSc2nnc3ccc(-c4ccc(Cl)cc4)nn23)c1", "survival": "inactive: 113%"}, {"smiles": "COc1cc(-c2nc3ccccn3c2NC2CCCC2)ccc1O", "survival": "inactive: 110%"}, {"smiles": "CC(C)(C)c1cc(CN2CCOCC2)c(C(=O)O)o1", "survival": "inactive: 92%"}, {"smiles": "COc1ccccc1NC(=O)C1=C(C)Nc2nc(SCc3ccccc3F)nn2C1c1cccnc1", "note": "(stereo not drawn)", "survival": "inactive: 67%"}, {"smiles": "Clc1ccc(Nc2c(-c3cccs3)nc3ccc(Cl)cn23)cc1", "survival": "inactive: 93%"}, {"smiles": "COc1ccc(CCNC(=O)Cn2c(=O)cc(C(F)(F)F)c3c(C)nn(C)c32)cc1OC", "survival": "inactive: 78%"}, {"smiles": "CCOC(=O)c1c(C)oc2nc(C)nc(N(CC(C)C)CC(C)C)c12", "survival": "inactive: 99%"}, {"smiles": "Cc1c(Cl)cccc1NC(=O)c1ccc2c(c1)nnn2C1CCCC1", "survival": "inactive: 108%"}, {"smiles": "O=C(NCCCN1CCN(c2ccc(F)cc2)CC1)C1COc2ccccc2C1", "note": "(stereo not drawn)", "survival": "inactive: 55%"}, {"smiles": "CCc1ccc(NC(=O)c2ccc3c(=O)n4nc(Nc5ccccc5C)sc4nc3c2)cc1", "survival": "inactive: 76%"}, {"smiles": "O=C(Nc1ccccc1C(=O)OCc1cc(=O)n2c3c(sc2n1)CCCC3)c1ccccc1", "survival": "inactive: 107%"}, {"smiles": "O=C(CCS(=O)(=O)c1ccccc1)N(Cc1cccnc1)c1nc2c(Cl)cccc2s1", "survival": "inactive: 84%"}, {"smiles": "Cc1cc(C)c2[nH]c(=O)c(CN(C(=O)Nc3ccccc3F)C3CC3)cc2c1", "survival": "inactive: 69%"}, {"smiles": "C=CCc1c(C)nc2nc(SCC(=O)Nc3cccc(Cl)c3)nn2c1C", "survival": "inactive: 102%"}]}]}
